Reference: PubChem BioAssay AID1259400 (National Center for Advancing Translational Sciences (NCATS), 2018)
About 2,100 (0.6%) of roughly 350,000 compounds were called active. Inconclusive means that the source gave no clear call. Such entries were picked first, then a sample of the others.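 How the source made its calls: active means activity change of -60% or lower, but not beyond a set lower limit; inconclusive means change between -60% and -40%, or beyond the set limit; inactive means change above -40%.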

Target: Relaxin receptor 1 (Homo sapiens) (UniProt Q9HBX9)
Sequence of UniProt Q9HBX9 (Q9HBX9 whole entry, looked up): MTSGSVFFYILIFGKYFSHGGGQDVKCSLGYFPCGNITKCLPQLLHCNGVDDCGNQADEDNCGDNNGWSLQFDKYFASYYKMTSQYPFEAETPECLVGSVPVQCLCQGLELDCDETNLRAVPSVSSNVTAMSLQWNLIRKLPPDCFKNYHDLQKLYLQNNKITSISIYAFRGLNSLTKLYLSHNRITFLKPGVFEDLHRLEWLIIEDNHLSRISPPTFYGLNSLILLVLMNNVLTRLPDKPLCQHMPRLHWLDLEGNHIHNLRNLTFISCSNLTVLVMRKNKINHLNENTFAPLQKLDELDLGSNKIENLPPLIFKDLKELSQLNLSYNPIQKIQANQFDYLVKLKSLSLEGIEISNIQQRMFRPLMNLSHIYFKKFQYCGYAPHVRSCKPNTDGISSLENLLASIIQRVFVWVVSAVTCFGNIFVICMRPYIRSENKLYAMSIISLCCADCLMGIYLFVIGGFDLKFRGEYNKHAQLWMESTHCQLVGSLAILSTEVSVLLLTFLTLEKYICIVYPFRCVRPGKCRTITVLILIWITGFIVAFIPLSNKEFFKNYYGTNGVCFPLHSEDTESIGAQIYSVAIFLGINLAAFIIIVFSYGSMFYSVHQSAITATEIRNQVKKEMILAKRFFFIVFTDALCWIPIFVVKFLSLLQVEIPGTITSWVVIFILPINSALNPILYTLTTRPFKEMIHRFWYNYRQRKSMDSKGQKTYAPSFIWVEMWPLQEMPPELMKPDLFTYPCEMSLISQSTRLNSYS
Test: qHTS Assay for Antagonists of the Relaxin Receptor RXFP1
Conditions: HEK293-RXFP1, relaxin-stimulated cAMP HTRF, 30 min; at 57.5 µM; hits give low values
On the % scale 0 is the no-effect control and ±100 the full control effect.

Compound	activity change, negative = inhibition
Cc1ccc(NC(=O)C(NC2CCCC2)c2ccccc2)cc1Cl (stereo unspecified)	inconclusive: -41.1%
Cc1ccc(OCCCSc2ncccn2)cc1C	inactive: 1.67%
COc1ccc2sc(NCc3ccccc3)nc2c1	inactive: -1.6%
O=C(c1ccc2nc(N3CCOCC3)sc2c1)N1CCC(Cc2ccccc2)CC1	inconclusive: -52.6%
CCCOc1ccc2oc(=O)c3c(c2c1)CCCN3C(=O)CN1CCc2ccccc2C1	inactive: -15.9%
Cc1ccccc1CN1C(=O)c2ccccc2Sc2ccc(C(=O)N3CCCC3)cc21	inconclusive: -49.9%
Cc1ccc(C(=O)c2cnc3cc4c(cc3c2S(=O)(=O)c2ccccc2)OCCO4)cc1	inconclusive: -45.4%
CC(=O)c1cccc(NC(=O)Nc2ccc3c(c2)N(C)C(=O)CS3)c1	active: -72.4%
COCC1CCCN(Cc2cn(Cc3ccccc3)nc2-c2cc3ccccc3o2)C1 (stereo unspecified)	inconclusive: -48.1%
O=c1c(S(=O)(=O)c2ccccc2)cn(Cc2cccc(F)c2)c2cc(N3CCOCC3)c(F)cc12	inconclusive: -41.2%
COc1ccc(-c2cc(-c3cc(OC)ccc3O)[nH]n2)cc1	inconclusive: -42.3%
COc1ccc([N+](=O)[O-])c(OC)c1C(=O)Nc1ccc(F)cc1F	inconclusive: -59.5%
Cc1ccc(OCCCN2C(=O)C(=O)c3cc(C)ccc32)cc1	inconclusive: -54.2%
CSCc1ccc(C(=O)N2CCCC(Nc3ccc(F)cc3)C2)o1 (stereo unspecified)	inactive: 7.78%
COc1ccc(OCC(O)CN(CCO)CC(O)Cn2ccc3ccccc32)cc1 (stereo unspecified)	active: -63.7%
O=c1ccc2c(-c3ccccc3S(=O)(=O)O)c3ccc(O)c(O)c3oc-2c1O	inconclusive: -50.7%
Oc1c(Br)cc(Br)cc1C=Nc1cccnc1	inconclusive: -49.4%
Cc1cc(C)n2nc(C(=O)N3CCCC(Nc4ccc(F)c(F)c4)C3)cc2n1 (stereo unspecified)	inactive: 6.25%
O=C(COc1cccc(Cl)c1)N1CCC(c2nc3ccccc3o2)CC1	inconclusive: -47.6%
O=C(c1cccn1-c1nnc(N2CCCCC2)s1)N1CCN(c2ccc(Cl)cc2)CC1	inconclusive: -56.5%
Cc1cc(NC(=O)c2cccs2)n(-c2nc3ccccc3[nH]2)n1	inconclusive: -56.6%
CCOc1c(N2CCOCC2)cnn(C)c1=O	inactive: -12.4%

Compound	activity change, negative = inhibition
O=C1c2ccccc2NC(c2ccncc2)N1c1ccccn1 (stereo unspecified)	inactive: 16%
COc1ccc(C(=O)Nc2ccc(NC(=O)c3ccco3)cc2)cc1	inconclusive: -45.2%
COC(=O)COc1ccc(NS(=O)(=O)c2cccc([N+](=O)[O-])c2)cc1	active: -65.8%
CCn1c(SCC(=O)Nc2cc(C(C)(C)C)nn2-c2ccccc2)nnc1-c1cccs1	inconclusive: -42.7%
Cc1cc(C)cc(OCC(=O)N2CCC(c3nc4ccccc4o3)CC2)c1	inconclusive: -52.5%
CCCC(=O)NC(c1ccccc1Cl)c1c(O)ccc2ccccc12 (stereo unspecified)	inconclusive: -51.6%
CCCCOc1ccc(N(CC(=O)NCCOC)C(=O)CCC(=O)Nc2ccccn2)cc1	inactive: -3.15%
COc1cc(C2CC(=O)c3c([nH]c(C(=O)OC4CCCC4)c3C)C2)cc(OC)c1OC (stereo unspecified)	inconclusive: -46.6%
CCOC(=O)C1(CCOC)CCN(C2C3CC4CC(C3)CC2C4)CC1 (stereo unspecified)	inconclusive: -40.3%
CCOc1ccc(C(=O)NCCc2csc(-c3cccc(C)c3)n2)cc1	inconclusive: -56.4%
NS(=O)(=O)c1ccc(CCNC(=O)c2ccc(C#CC3(O)CCCCC3)cc2)cc1	inconclusive: -44.8%
CCOC(=O)C1=C(N)Oc2cc(O)ccc2C1c1ccc(C)cc1 (stereo unspecified)	inconclusive: -49.8%
N#C/C(=C\c1ccc(F)cc1)c1nc(-c2ccco2)cs1	inconclusive: -40.3%
O=C1Cc2cc(S(=O)(=O)Nc3ccc(OC(F)(F)F)cc3)cc3c2N1CCC3	inactive: -19.8%
Cc1ccccc1OCC(=O)Nc1ccc2nc(SCC(=O)N3CCCC3)sc2c1	active: -86.4%
Nn1c(SCC(=O)NCc2ccc3c(c2)OCO3)nnc1C1CC1	inconclusive: -44.1%
CC(C)N1CCc2c(sc(NC(=O)c3ccc4ccccc4c3)c2C(N)=O)C1	active: -73.8%
O=C(NCCCn1ccnc1)Nc1cccc(Cl)c1	inactive: 8.35%
CSc1nnc(NC(=O)c2nc(S(=O)(=O)Cc3cccc(C)c3)ncc2Cl)s1	active: -73.4%
COc1cccc(-c2nc3ccc(C(=O)NC(C)Cc4cccnc4)cc3o2)c1 (stereo unspecified)	inactive: -0.171%
Cc1ccc(C(=O)NCCn2cc(SCC(=O)Nc3nnc(C)s3)c3ccccc32)cc1	inactive: 2.26%
Cc1ccc(S(=O)(=O)CC(=O)N2CCN(c3nc4c(F)cccc4s3)CC2)cc1	inactive: -10%

Compound	activity change, negative = inhibition
NC(=S)NN=Cc1nccc2ccccc12	active: -76%
O=C1S/C(=C\C=C\c2ccco2)C(=O)N1c1ccccc1	inconclusive: -49.2%
CCc1ccc(NC(=O)/C(C#N)=C\c2ccc(OC)c(C(=O)O)c2)cc1	inconclusive: -42.2%
CCN(CC)C(=O)c1sc2c(c1C)c(=O)n(CCc1ccccc1)c(=O)n2Cc1cc(C)ccc1C	inactive: -6.69%
CCc1ccccc1OCC(=O)Nc1nc(-c2cccnc2)cs1	inconclusive: -50.4%
COc1ccc(-c2nc3scc(CCNS(=O)(=O)c4ccc5c(c4)OCCO5)n3n2)cc1	inconclusive: -41.8%
O=C(Nc1ccc(NC(=S)NC(=O)c2ccco2)cc1)c1ccc(Br)cc1	inactive: -4.3%
CN(C)c1ccc(NC(=O)N2CCOCC2)cc1	active: -68.6%
O=C(COc1ccc(/C=N/NC(=O)c2ccncc2)cc1)Nc1cccc([N+](=O)[O-])c1	inconclusive: -45.1%
CC1=C(C(=O)Nc2ccc(Cl)cc2)C(c2ccccc2)n2ncc(C(=O)Nc3ccccc3)c2N1 (stereo unspecified)	inconclusive: -40.9%
COc1ccc(NC(=O)c2ccc3c(c2)NC(=O)CS3)cc1S(=O)(=O)Nc1ccc(Br)cc1	inactive: -2.53%
O=C(CCCCCCCCC(=O)N/N=C/c1ccco1)N/N=C/c1ccco1	inconclusive: -42.8%
COc1ccc(N2CCN(CC(O)COC(c3ccccc3)c3ccccc3)CC2)cc1 (stereo unspecified)	inconclusive: -40.4%
Cc1ccc(C)c(N(CC(=O)NC2CCCCC2)C(=O)c2snc(C(N)=O)c2N)c1	inconclusive: -52.9%
CC1(C)NC(=O)N(CC(=O)Nc2ccc(-n3cnnn3)cc2)C1=O	active: -71.3%
COc1ccccc1C(=O)NNC(=O)C(=O)Nc1ccc(C)cc1	inconclusive: -55.9%
CCOc1cc(-c2ccc(OC(=O)c3ccccc3)c(OC)c2)cc(=O)c2c(C)oc(C)c12	active: -97.7%
CC(C)(C)NCC(O)CON=C1c2ccccc2-c2ccccc21 (stereo unspecified)	inconclusive: -51.2%
O=C(Nc1cccc(S(=O)(=O)NCc2ccco2)c1)c1ccc(Cl)cc1	inconclusive: -58%
CCOc1ccc(NC(=O)CSc2nc3ccsc3c(=O)n2CCCCCC(=O)O)cc1	inconclusive: -48.1%
Cc1ccccc1OCCCCn1nnc2sc3c(c2c1=O)CCC(C)C3 (stereo unspecified)	inactive: -0.411%
CC/C=C(\C(=O)N[C@H]1C(=O)N2C(C(=O)OCOC(=O)C(C)(C)C)=C(COC(N)=O)CS[C@H]12)c1csc(N)n1	inactive: -5.56%

Compound	activity change, negative = inhibition
O=S(=O)(Nc1ccc(N2CCOCC2)nn1)c1ccccc1	inactive: -13.3%
O=C1C(=O)N(C2CCN(C(=O)c3ccccc3F)CC2)CCN1Cc1ccc(F)cc1	inactive: -1.69%
CC1=CC(C)(C)C(C(=O)O)C(C(=O)O)C1 (stereo unspecified)	inactive: -11.3%
O=C(Nc1ccc(Br)cc1)N1CCCCCCC1	inactive: -13.5%
Cc1ccccc1Nc1nc(N)nc(CN(C)Cc2ccccc2Cl)n1	inconclusive: -40.7%
COc1ccc(CN(C)CC(O)COc2ccc(-c3ccccc3)cc2)cc1OC (stereo unspecified)	active: -66.1%
CCOc1ccc(-n2c(O)c(/C=N/NC(=O)C3COc4ccccc4O3)c3ccccc3c2=O)cc1 (stereo unspecified)	inconclusive: -53.5%
O=C(Nc1ccc(C(O)(C(F)(F)F)C(F)(F)F)cc1)c1ccc(Cl)c([N+](=O)[O-])c1	active: -89.5%
O=C(O/N=C1/CCSc2ccccc21)c1ccccc1	inconclusive: -48.4%
Cn1c(CNC(=O)c2ccccc2F)nnc1SCC(=O)Nc1nnc(C2CC2)s1	inconclusive: -48%
Cc1cc(C)c(OCC(=O)NCC(C)(C)N2CCOCC2)c(C)c1	inactive: 16.5%
CC(=O)Nc1cccc(C(=O)Nc2ccccc2C(=O)O)c1	inactive: -0.0329%
COC(=O)CN1C(=O)C(C)(C)Oc2ccc(C(=O)Nc3ccccc3F)cc21	inconclusive: -50.1%
Cc1ccc(-n2nc(CO)c(C(=O)NCCc3ccccc3)n2)cc1	inactive: -19.5%
C[C@H]1C[C@H]2[C@@H]3CCC4=CC(=O)C=C[C@]4(C)[C@@]3(Cl)[C@@H](O)C[C@]2(C)[C@@]1(O)C(=O)CO	active: -69.9%
CCn1c(CN2CCN(Cc3ccc(C)cc3)C(CCO)C2)nc2ccccc21 (stereo unspecified)	inactive: -14.6%
CC1=CC(C)(C)n2c(O)c(N=N)c3c(C)c(C)cc1c32	inconclusive: -48.4%
COc1ccc(-c2nc3ccc(NS(=O)(=O)c4ccccc4)cc3o2)cc1	inconclusive: -40.8%
CC(=O)Nc1ccc(NC(=O)CSc2nnc3ccc(-c4ccccn4)nn23)cc1	active: -106%
Cc1ccc(C(C2=C(O)CC(C)(C)CC2=O)C2C(=O)CC(C)(C)CC2=O)s1 (stereo unspecified)	inconclusive: -47.9%
